In publication PMC8041205 (2021) one finds Kd data, which are given here for one molecule.

In general, Kd refers to the free concentration of one partner at which half of the binding sites on the other are occupied at equilibrium, for simple one-to-one binding.

The target in this test is BSA. Description: ITC. (In general: Isothermal titration calorimetry measures the heat released or taken up as one component is titrated into another.)

Some results are limits rather than exact numbers.

B1: commercially available recombinant MyD88 (natural protein)
chain: MAAGGPGAGSAAPVSSTSSLPLAALNMRVRRRLSLFLNVRTQVAADWTALAEEMDFEYLEIRQLETQADPTGRLLDAWQGRPGASVGRLLELLTKLGRDDVLLELGPSIEEDCQKYILKQQQEEAEKPLQVAAVDSSVPRTAELAGITTLDDPLGHMPERFDAFICYCPSDIQFVQEMIRQLEQTNYRLKLCVSDRDVLPGTCVWSIASELIEKRCRRMVVVVSDDYLQSKECDFQTKFALSLSPGAHQKRLIPIKYKAMKKEFPSILRFITVCDYTNPCTKSWFWTRLAKALSLP
As for B1, the Kd is > 10 mM.
